Reference: PubChem BioAssay AID493208 (National Center for Advancing Translational Sciences (NCATS), 2011)
Among all 44,000 compounds or so, about 340 (0.77%) were called active. Roughly 5% stayed inconclusive and do not appear here. Calls follow the shape of the dose curve; as a rule, active = well fitted inhibition curve with a large enough effect; inconclusive = small, poorly fitted or top-dose-only effect; inactive = flat fitted curve, though single readings scatter. The list shows a part of the results.

assay: Acumen qHTS Assay for Inhibitors of the mTORC1 Signaling Pathway in MEF (Tsc2-/-, p53-/-) Cells: Sytravon; conditions: phospho-rpS6 immunofluorescence/PI, 24 h; series mostly up to 38.3 µM; activity change, negative = inhibition: at the top concentration;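 also: plate controls were DMSO for no effect and rapamycin for full effect; nearly all actives have a fitted effect of over 50% in size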
In short: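 Tsc2-/-, p53-/- MEFs (empty-vector stable line) in DMEM + 10% FBS were treated with compounds 24 h at 37 degree Celsius, fixed, and immunostained for phospho-rpS6 (Alexa-488) with propidium iodide counterstain. Laser-scanning cytometry gave % positive cells, normalized against 7.5 nM rapamycin and DMSO.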

Activity change, negative = inhibition, inactive:
CCOC(=O)c1cc(S(=O)(=O)N(C)c2ccccc2)[nH]n1 4.08%
CCOc1ccc(S(=O)(=O)Nc2ccc3c(c2)CCCN3S(=O)(=O)c2ccc(C)cc2)cc1 0%
Cn1c(C(=O)NCc2ccccc2F)cc2cc(S(=O)(=O)N3CCCCC3)ccc21 2.74%
COC(=O)c1sc2cccc(F)c2c1S(=O)(=O)NCc1ccccc1Cl -4.87%
COc1ccc(NC(=O)CN(C)S(=O)(=O)c2ccc3nc(C)sc3c2)cc1Cl 0.974%
COc1ccc(CCNCc2c(C(=O)O)c(C)n(Cc3cccc(C)c3)c2C)cc1OC -0.69%
Cc1cccc(Nc2nnc(-c3ccc(C)c(S(=O)(=O)N4CCOCC4)c3)c3ccccc23)c1 21.8%
CCCOc1ccc(C(=O)Nc2ccc(NC(=O)c3ccc(Br)cc3)cc2)cc1 3.72%
CCOC(=O)c1scc(-c2ccc(C)cc2)c1S(=O)(=O)N1CCN(c2ccccc2)CC1 -12.2%
Cc1cc(C)cc(NC(=O)C2CCN(c3nnc(-n4c(C)ccc4C)s3)CC2)c1 -9.97%
CCc1cccc(NC(=O)CN(C)S(=O)(=O)c2ccc3c(c2)n(C)c(=O)c(=O)n3C)c1 -11.5%
COc1ccc(-c2noc(COc3ccc(C)cc3C)n2)cc1OC 0.188%
CC(=O)c1ccc(NS(=O)(=O)c2ccc3[nH]c(=O)[nH]c3c2)cc1 -6.19%
COc1ccc(S(=O)(=O)N(CC(=O)Nc2ccc(C)cc2)c2ccc(C)cc2)cc1OC -5.13%
COc1ccc(-n2c(SCC(=O)Nc3ccc4c(c3)OCO4)nc3c([nH]c4ccccc43)c2=O)cc1 -6.38%
COc1ccc(Cl)cc1NC(=O)c1noc2c1CCc1ccccc1-2 1.59%
O=C(CN1C(=O)c2ccccc2Sc2ncccc21)Nc1cccc(C(F)(F)F)c1 -3.92%
COc1cccc(CNC(=O)C2=C(C)C(=O)OC23CCCCCC3)c1 -2.86%
Cc1cccc(N2CCN(C(=O)CCNS(=O)(=O)c3ccc4c(c3)CCN4C(=O)C3CC3)CC2)c1C -18.5%
COc1ccc(Nc2cc(C)c3cc(NC(=O)COc4cccc(C)c4)ccc3n2)cc1 -25.5%
CCOc1ccccc1NC(=O)CN(c1cc(C)cc(C)c1)S(=O)(=O)c1c(C)nn(C)c1C 1.28%
Cc1cc(C)c(Cn2cnc3nc4c(cc3c2=O)CCCC4)c(C)c1 0%
CCOc1ccc2nc(Cl)c(C3CC(c4ccccc4)=NN3C(=O)CCC(=O)O)cc2c1 (stereo unspecified) -4.55%
CCOc1ccc(NC(=O)N2CCC(n3c(C)nc4cccnc43)CC2)cc1 3.77%
CCOc1ccc(C(=O)NCC(c2ccc3c(c2)OCO3)N2CCN(C)CC2)cc1 (stereo unspecified) 0.209%
CCc1cc(=O)oc2c(C)c(OCC(=O)Nc3ccc(S(=O)(=O)N(CC)CC)cc3)ccc12 -2.84%
Cc1ccc(-c2nnc(Nc3ccc(O)cc3)c3ccccc23)cc1S(=O)(=O)NC(C)(C)CO 0.0932%
Cc1nn2c(C)c(C(=O)NCc3cccc(Br)c3)cnc2c1-c1ccccc1 -10.5%
Cc1ccc(Cl)cc1N1CCN(C(=O)COc2cc(=O)n(C)c3ccccc23)CC1 -18.2%
COc1cc2c(cc1OC)C(COc1ccccc1OC)N(C(=O)c1ccc(S(=O)(=O)N(C)C)cc1)CC2 (stereo unspecified) 9.49%
COc1ccc(Nc2nc3c(S(=O)(=O)c4ccc(C)cc4)nnn3c3ccsc23)cc1Cl -0.983%
CC(=O)N1CCc2c(sc3c2c(=O)n(Cc2ccccc2)c(=O)n3Cc2ccccc2Cl)C1 -8.34%
Cc1ccc(/C=C/c2onc(C)c2S(=O)(=O)N2CCC(C(=O)N3CCN(c4cc(C)ccc4C)CC3)CC2)cc1 -1.33%
CCCCN(CC)C(=O)CSc1nc2ccccc2c(=O)n1Cc1ccco1 -1.46%
CC1CN(C(=O)N2CCC(C(=O)NCc3cccs3)CC2)c2ccccc2O1 (stereo unspecified) -3.7%
CCC1CCCCN1CCCNC(=O)c1c(O)nc2cc(C)ccn2c1=O (stereo unspecified) 1.57%
COc1ccc(NC(=O)C2CCN(c3ccc(Sc4ccc(C)cc4)nn3)CC2)cc1 -0.658%
COC(=O)c1cc2sc(Cl)cc2n1Cc1nc(-c2ccccc2C)oc1C -0.0551%
COc1cccc(CNC(=O)Cn2c(=O)nc(-c3ccccc3F)c3cc(Cl)ccc32)c1 0%
CC1CCN(S(=O)(=O)c2ccc3c(c2)N(CC(=O)NC(C)(C)C)C(=O)CS3)CC1 -3.92%
COc1ccc(Nc2oc(/C=C/c3cc(OC)c(OC)c(OC)c3)nc2C#N)cc1 -3.02%
COc1ccccc1C(=O)Nc1ccc(S(=O)(=O)Nc2nc(C)cc(C)n2)cc1 -2.21%
Cc1oc2ncnc(N3CCCCC3)c2c1C(=O)N1CCN(c2ccc(Cl)cc2)CC1 -1.64%
COc1ccc(S(=O)(=O)N(CC(=O)NCCc2ccccc2)c2ccc(Cl)cc2)cc1 2.04%
CCOc1ccc(C(=O)c2oc3ccccc3c2NC(=O)c2cc(=O)c3ccc(C)cc3o2)cc1 -6.99%
COc1ccc(-c2nc3c4ccccc4n(CC(=O)N4CCN(c5ccccc5F)CC4)c(=O)n3n2)cc1 0.141%
